The other results are listed elsewhere or left out.
B1: chr2:73747422:73747423:-_ENSMUSG00000018770_ENSMUST00000018914|mus_mus|FALSE|FALSE (ssRNA)
RNA: GGGAGUUCUACAGUCCGACGAUCCAGCUGACACACACCAUUCUGGGCCCCAUUAAAAACUGUAGAGCCCUCUCCAGUCCUAGUCUCUGGCCGAGAUAACACUGAUGCAGAAAUUGGUCUAUAUGCAACUCUGGAUCCAGCUCGCAACAGAGGAUUGAGCAUCA
B2: 98272209_98272773_3538_CDS_ENSMUSG00000036550_ENSMUST00000098473|mouse|control|control (ssRNA)
RNA: GGGAGUUCUACAGUCCGACGAUCCUCUUGAAUAUUUUCUGGGGGCUCCACAAUCCUCUCAGUUUGAUCUGUGGCCACAAGCAAUGUAUCGAUAUUUGUUGUAUUUAUAGAAGGUGGCACAUCUUUCUUAAAGCUGACUCCCGUCAACAGAGGAUUGAGCAUCA
B3: chr13:99559765:99559766:-_ENSMUSG00000041685_ENSMUST00000040340|mus_hu|FALSE|FALSE (ssRNA)
RNA: GGGAGUUCUACAGUCCGACGAUCCUGAACUUCCUUUAUUAAUUCUUGUAAUUUUCUAACAAGAUCCAAGUGACAAUUUGCUAAUUUCUCUGUAGAUGUUUUGAAUACAUCCCAUACUGGUGCAAAUGUUCCAAGUUGUGAAUACAACAGAGGAUUGAGCAUCA
B4: chr3:176740097:176740098:-_ENSG00000177565_ENST00000430069|hu_mus|hu_hu_hu_mus_True|1_38 (ssRNA)
RNA: GGGAGUUCUACAGUCCGACGAUCUGUUUUGUAUACCACAAAAGGAGGCACUUUCAGUAUCUGCAAAAGGUGUUUAGUCCUAAAACAUACUCACCUAGAGAAUAAUUCAGGAAAACAAUCUGUUACACUCUAAGACCUUAGGAACAACAGAGGAUUGAGCAUCA
B5: chr12:57918738:57918739:+_ENSG00000166987_ENST00000355673|hu_mus|FALSE|FALSE (ssRNA)
RNA: GGGAGUUCUACAGUCCGACGAUCUGCAGGCCCCACCCCAGCCCCACCCGGGGUCACCGGGGCCAGAGGGUCAAAGUUGAAAACCUUGGGUACAUUAAGUGGACACUCCAGACCGCACUUGCAGGUCCCAUCGCUGAGGAGGUACAACAGAGGAUUGAGCAUCA
B6: chr6:13622506:13622507:-_ENSG00000010017_ENST00000011619|hu_hu|FALSE|FALSE (ssRNA)
RNA: GGGAGUUCUACAGUCCGACGAUCCUAGGAAGCAAUGUAAAGCGACAAAAACCUGUCCCCAGUACAUAAUUUAAAAAAUCUAAAUUUCAAAUCAGCAGAGCUGGUCUACUUCCAUGUUGACUAUAUGCCACAAUAUAAGUGUGACAACAGAGGAUUGAGCAUCA
B7: chr9:69870353:69870354:+_ENSMUSG00000033543_ENSMUST00000118198|mus_mus|FALSE|FALSE (ssRNA)
RNA: GGGAGUUCUACAGUCCGACGAUCCGGGACCCUGGGUAGUAGAUAUAGCACAGUGUUGUCAUUUCUGCACCGUGAGAAUAAAUAAAAAAAAGUCUCUUCCAUGUUUCUCUUCAAAAAGCGAUGAAAAUAACAGAAGGUGGCAUACAACAGAGGAUUGAGCAUCA
B8: chr9:95013113:95013114:-_ENSG00000196305_ENST00000443024|hu_hu|hu_hu_hu_mus_False|1_18 (ssRNA)
RNA: GGGAGUUCUACAGUCCGACGAUCCUCAGUCAGAAAGGGCGUGUAAGGGGCCAUCAGUCUGCACAGAGAAAGCAGGACACUGAACAGUGUCUCCAGAGCCAUGACACAGUCUUCCACCCCAUUUUCACCCUUUAACCUUCUGCGCAACAGAGGAUUGAGCAUCA
B9: chr10:124922180:124922181:+_ENSG00000154473_ENST00000368858|hu_hu|FALSE|FALSE (ssRNA)
RNA: GGGAGUUCUACAGUCCGACGAUCCCCAUCAUUACUGAAGGCAAGUGAUGCGAUGCUCGUGGGGUACCGAUGGAAUUGGCACAGUCGCUUUUUGUUAAAUGGAUCCCAAAUAUUUACAAAGCCAUCAGAACCACCUGUGGCAAACAACAGAGGAUUGAGCAUCA
B10: chr10:62544570:62544571:+_ENSG00000170312_ENST00000395284|hu_hu|motif|central (ssRNA)
RNA: GGGAGUUCUACAGUCCGACGAUCACUGACUAUAUUUGGAUGACGAAGUUCCUUUAAUAGAGAAAUUUCCCGAAUUGCAGUACGGGGAACCCCUUCCUCUUCACUUUCUAGUCUGAUUUUUUUCAUGGCUACCACUUGACCUGUCAACAGAGGAUUGAGCAUCA
B11: chr7:140404665:140404666:+_ENSG00000090266_ENST00000247866|hu_hu|hu_hu_hu_mus_False|18_108 (ssRNA)
RNA: GGGAGUUCUACAGUCCGACGAUCUGCGUACAGAGUGCCAGAGAGUUUACAGUGUCAGUCCUCGUCAUCAGGAGGGAUUCCCAGUUCUUCAUCUGUCCACUGUGAAGGAUCUGGAUACGGAAAGUGACCCAGCACAGCAUCCGACAACAGAGGAUUGAGCAUCA
B12: chr6:160100356:160100357:-_ENSG00000112096_ENST00000546260|hu_hu|motif|central (ssRNA)
RNA: GGGAGUUCUACAGUCCGACGAUCGCUGGGAUCAUUAGGGUAUGACUGAAAGUGAGAAACAGUAAUUUGUAAAACAUUUACCGGAUAAUAGCUUUCCCAAACAGUACUUCCCCUGGAAUUAAAACAGGAAAUACAAUUUAUGUUCAACAGAGGAUUGAGCAUCA
B13: 176794798_176794918_1371_3pUTR_ENSG00000144320_ENST00000272748|human|control|control (ssRNA)
RNA: GGGAGUUCUACAGUCCGACGAUCUCUCUUGUUUCUCCUCUGGUUCCUCUGAGUCAGAUGCUUUUUCAAUCACUUGGUUUGUCUGUUCUGUAGCUGGUAUUUUGUCAUCUGUCUGCUCUGUAUUAUCAUCAAGAACAUCGUGUUCAACAGAGGAUUGAGCAUCA
B14: chr17:57724971:57724972:+_ENSG00000141367_ENST00000269122|hu_mus|FALSE|FALSE (ssRNA)
RNA: GGGAGUUCUACAGUCCGACGAUCCUGUGCAGAUAUGCCAGUGAGAAGCAACCAUUUCUGCUUUGCAUCUGUACGGUAAUUGAUGAUCUGGCAUCCUGCGAGGCUAGAAUGACGAUCAAACAUUUUCACUGGCUGAGACUCUCCCAACAGAGGAUUGAGCAUCA

These binders were tested against T1, UNK ZnF1-3 (human, UniProt Q9C0B0 31-174) (assay: nsRBNS (natural sequence RNA bind-n-seq); RBNS binding buffer (assumed for nsRBNS): 25 mM Tris pH 7.5, 150 mM KCl, 3 mM MgCl2, 0.01% Triton X-100, 500 ug/ml BSA, 20 U/ml SUPERase-In, 4 C; UNK is unkempt and MSI1 is Musashi-1; names of the RNAs are library labels; protein concentration not given here; high values mean tight binding).
T1 sequence: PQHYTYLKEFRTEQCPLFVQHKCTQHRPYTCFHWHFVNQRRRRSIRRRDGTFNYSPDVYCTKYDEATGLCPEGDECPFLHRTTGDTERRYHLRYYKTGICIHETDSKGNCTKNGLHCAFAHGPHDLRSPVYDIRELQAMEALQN

| Binder | binding signal [enrichment R] |
| --- | --- |
| B1 | 1.23 |
| B2 | 0.788 |
| B3 | 0.704 |
| B4 | 0.645 |
| B5 | 1.33 |
| B6 | 1.29 |
| B7 | 1.48 |
| B8 | 0.992 |
| B9 | 1.03 |
| B10 | 0.482 |
| B11 | 1.3 |
| B12 | 1.68 |
| B13 | 0.345 |
| B14 | 0.927 |

— PMC12136788
